Hit rate of the full screen: of about 110,000 compounds, about 230 (0.21%) showed an effect of 50% or more. The list shows a part of the results.
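Note: 30 min substrate incubation versus DMSO and 10 µM JCP410 controls.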

The target in the assay is DPAP1 (Plasmodium falciparum, UniProt Q8IIJ9). As to the kind of experiment: primary screen, percent inhibition; read by cleavage of a fluorogenic dipeptide substrate; higher = more effect of the substance. Further details: species or system P. falciparum D10 trophozoite lysates; single well.
DPAP1, sequence (Q8IIJ9 whole entry, looked up): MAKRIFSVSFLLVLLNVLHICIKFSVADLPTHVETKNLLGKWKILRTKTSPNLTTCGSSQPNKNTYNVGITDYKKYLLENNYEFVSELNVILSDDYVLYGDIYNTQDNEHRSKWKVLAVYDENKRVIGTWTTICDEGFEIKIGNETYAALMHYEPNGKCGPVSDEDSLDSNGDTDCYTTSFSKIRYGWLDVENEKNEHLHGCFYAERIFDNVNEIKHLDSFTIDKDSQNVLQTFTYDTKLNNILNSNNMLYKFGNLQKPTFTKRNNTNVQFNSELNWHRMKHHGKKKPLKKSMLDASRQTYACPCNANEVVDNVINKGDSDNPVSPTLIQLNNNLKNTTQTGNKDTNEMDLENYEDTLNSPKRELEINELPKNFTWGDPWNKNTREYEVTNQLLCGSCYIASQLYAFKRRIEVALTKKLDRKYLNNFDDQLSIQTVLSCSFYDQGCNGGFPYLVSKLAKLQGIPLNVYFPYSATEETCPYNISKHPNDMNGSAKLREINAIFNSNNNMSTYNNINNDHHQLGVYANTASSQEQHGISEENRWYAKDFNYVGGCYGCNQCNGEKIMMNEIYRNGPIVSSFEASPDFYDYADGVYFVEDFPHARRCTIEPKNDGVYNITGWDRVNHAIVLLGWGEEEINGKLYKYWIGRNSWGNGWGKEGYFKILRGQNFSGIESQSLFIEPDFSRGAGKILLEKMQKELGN
For `CNC(=O)CCc1nc(-c2ccc(OC)c(OC)c2)no1`, the “% Inhibition @ 10 uM” value is listed as -6.85%.
As for `COc1ccc(C2=N/C(=C\c3ccc(C)cc3)C(=O)O2)c(Cl)c1`, the “% Inhibition @ 10 uM” value was -2.54%.
With `Cc1ccc(S(=O)(=O)N(C)C)cc1N`, the “% Inhibition @ 10 uM” value is -0.453%.
With `C#CCOC(=O)/C(=C/c1ccco1)NC(=O)c1ccccc1`, the “% Inhibition @ 10 uM” value was -1.06%.
As for `Cc1cccc(C(=O)Nc2c(C(=O)N3CCCCCC3)cnn2-c2ccccc2)c1`, the “% Inhibition @ 10 uM” value is reported as 4.12%.
To `CCC1(O)CC(C)S(=O)(=O)C2CCCCC21` (stereo not drawn) belongs 2.38%; to `Cc1cc(NC(=O)c2sc3nc4c(cc3c2N)CCCCCC4)no1`, 8.05%.
For `COc1ccc(-c2nsc3c(N4CCNCC4)ncnc23)cc1`, the “% Inhibition @ 10 uM” value was 4%.
For the compound `c1ccc(CSc2nnc(-c3ccccc3)o2)cc1`, the “% Inhibition @ 10 uM” value is 3.47%.
Turning to `COc1ccc(CC(=O)N2N=C3CCC(C)CC3C2(O)C(F)(F)F)cc1` (stereo not drawn), the “% Inhibition @ 10 uM” value is reported as -4.59%.
Then `O=CN1CCN(Cc2ccc(Cl)cc2)CC1`, with 5.8%; and `N#Cc1c(-c2cccs2)cc(-c2ccccc2)nc1SCC(N)=O`, with 3.05%; and `COc1ccc(OC)c(C2=NOC(C(=O)N3CCOCC3)C2)c1` (stereo not drawn), with -0.431%.
Take `Cc1ccsc1CN(C(=O)COc1ccc(Cl)cc1Cl)C1CCS(=O)(=O)C1` (stereo not drawn): the “% Inhibition @ 10 uM” value was 2.19%.
Regarding `CC(NC(=O)CCCc1nnc2n(C)c(=O)c3sccc3n12)c1ccccc1` (stereo not drawn), the “% Inhibition @ 10 uM” value turned out to be 0.868%.
To `COc1cccc(C(=O)Nc2c3c(nn2-c2ccc(Cl)cc2)CS(=O)(=O)C3)c1OC` belongs -3.67%.
As to `CCO/C(O)=C/C1=NC(C)(C)Cc2cc(C)c(C)cc21`, the “% Inhibition @ 10 uM” value is recorded as -4.91%.
Regarding `COc1ccc(C(=O)Nc2nc3nc(-c4ccccc4)cc(O)n3n2)cc1OC`, the “% Inhibition @ 10 uM” value is reported as 5.2%.
As for `CSc1ccc2c(c1)C(N1CCN(CCCO)CC1)Cc1ccc(O)cc1S2` (stereo not drawn), the “% Inhibition @ 10 uM” value is given as -2.56%.
As to `CCCN1CCC(N2CCC(O)(c3ccc(Br)cc3)CC2)CC1`, the “% Inhibition @ 10 uM” value was -3.6%.
Consider `CCN1C(=O)c2cccc3c(NS(=O)(=O)c4ccccc4[N+](=O)[O-])ccc1c23`, for which the “% Inhibition @ 10 uM” value is -6.68%.
To `O=C(Nc1cc(Cl)ccc1Cl)c1cccc(Br)c1` belongs -0.197%.
On to `Cc1nc2nc(Cc3ccccc3)nn2c(C)c1Cl`, for which the “% Inhibition @ 10 uM” value amounted to 2.62%.
Turning to `Cc1cc(C)n(C2=NNC(N3CCOCC3)C=C2)n1` (stereo not drawn), the “% Inhibition @ 10 uM” value is reported as 4.04%.
Then `O=C(OC(c1ccco1)c1nccc2ccccc12)c1ccccc1` (stereo not drawn), with -3.33%.
Then `COc1ccc(Cn2c(=O)c3ccccc3n3c(-c4cc(Br)cs4)nnc23)cc1`, with 1.68%; and `COc1ccc2nc3oc(C(=O)NCc4ccc(C)cc4)cc3cc2c1`, with -1.54%.
To `CCS(=O)CCSc1nc(-c2cccs2)cc(-c2ccccc2)c1C#N` (stereo not drawn) belongs 7.76%; to `COc1ccc(C2C3=C(O)CC(C)(C)CC3=NC(C)=C2C(=O)Nc2ccc(C)cn2)c(OC)c1` (stereo not drawn), -1.1%.
Turning to `Cc1noc(/C=C/N(C)C)c1S(=O)(=O)N1CCC(C(=O)NC2CCCCCC2)CC1`, the “% Inhibition @ 10 uM” value was -10.4%.
On to `CCOc1ccc(-n2nc3ccc(NC(=O)c4ccccc4F)cc3n2)cc1`, for which the “% Inhibition @ 10 uM” value is -1.28%.
As to `CCN(CC)S(=O)(=O)N1CCC(C(=O)NCCC2=CCCCC2)CC1`, the “% Inhibition @ 10 uM” value was -5.92%.
To `CCOc1ccc(NC(=O)CN(c2ccccc2C)S(C)(=O)=O)cc1` belongs -9.2%; to `CCCc1cc(O)n2nc(NC(=O)c3ccc(C)cc3)nc2n1`, -1.31%; to `COc1ccc(CCn2c(SCc3ccccc3C)nc3nccnc3c2=O)cc1OC`, -2.48%.
`CN1CCCN(CC2CCCCC2)CC1`: the “% Inhibition @ 10 uM” value worked out at 1.38%.
To `O=C(CS(=O)(=O)c1nc[nH]n1)NCCc1ccccc1` belongs 5.9%; to `Cc1c[n+](C)c(C)cc1-c1ccccc1`, -5.79%.
For the compound `O=C(O)CCCNC(=O)/C(=C/c1ccc2c(c1)OCO2)NC(=O)c1ccccc1Cl`, the “% Inhibition @ 10 uM” value is 3.95%.
With `O=C(NCC1CCCO1)c1cc(-c2ccncc2)nc2ccc(S(=O)(=O)N3CCOCC3)cc12` (stereo not drawn), the “% Inhibition @ 10 uM” value is reported as 0.718%.
For the compound `Cc1ccc(NC(=O)CN2C(=O)c3ccccc3C2=O)c(C)c1`, the “% Inhibition @ 10 uM” value came out at 9.02%.
As for `Nc1ccc(-c2nc3ccccc3s2)cc1`, the “% Inhibition @ 10 uM” value is 6.09%.
With `COc1ccc(S(=O)(=O)N2CCC(NC(=O)NC(C)c3ccncc3)CC2)cc1` (stereo not drawn), the “% Inhibition @ 10 uM” value stood at 2.29%.
On to `Cc1ccc(-n2nnnc2SCC(=O)Nc2nccs2)cc1Cl`, for which the “% Inhibition @ 10 uM” value turned out to be 6.22%.
To `Cc1cc(C)c2c(n1)sc1c(=O)n(Cc3ccco3)nnc12` belongs 2.54%.
Consider `O=C1NC(=S)S/C1=C/c1ccc([N+](=O)[O-])o1`, for which the “% Inhibition @ 10 uM” value is given as 0.878%.
Regarding `CCOc1ccc2nc(N3CCC(C(=O)NC4CCCC(C)C4C)CC3)sc2c1` (stereo not drawn), the “% Inhibition @ 10 uM” value turned out to be 1.8%.
Then `Cc1ccc(S(=O)(=O)NCCC(=O)N2CCN(Cc3ccccc3)CC2)cc1`, with 5.23%.
As for `CCOc1ccc2nc(NC3=NCN(Cc4ccco4)CN3)nc(C)c2c1`, the “% Inhibition @ 10 uM” value is recorded as 0.0539%.
`CCN1C(=O)C2(C(C#N)=C(N)Oc3[nH]nc(-c4ccc(F)cc4)c32)c2ccccc21` (stereo not drawn): the “% Inhibition @ 10 uM” value stood at 0.658%.
`Cc1cccc(Oc2ccc(NC(=O)C3CC=CCC3C(=O)O)cc2)c1` (stereo not drawn): the “% Inhibition @ 10 uM” value worked out at 1.03%.

For the origin of these results see PMC6919601, “Identification of Plasmodium dipeptidyl aminopeptidase allosteric inhibitors by high throughput screening” (PLoS ONE, 2019).
